From publication PMC4336329 (PLoS ONE, 2015)
Among all 310,000 compounds or so, about 2,200 (0.71%) showed an effect of 50% or more. The effect is printed as a negative number. Some of the results follow.

These compounds were tested against human ether-à-go-go-related gene (hERG) potassium channel (human, UniProt Q12809) (assay: primary screen, population patch clamp on CHO cells stably expressing hERG).
Chain of human ether-à-go-go-related gene (hERG) potassium channel (Q12809 whole entry, looked up): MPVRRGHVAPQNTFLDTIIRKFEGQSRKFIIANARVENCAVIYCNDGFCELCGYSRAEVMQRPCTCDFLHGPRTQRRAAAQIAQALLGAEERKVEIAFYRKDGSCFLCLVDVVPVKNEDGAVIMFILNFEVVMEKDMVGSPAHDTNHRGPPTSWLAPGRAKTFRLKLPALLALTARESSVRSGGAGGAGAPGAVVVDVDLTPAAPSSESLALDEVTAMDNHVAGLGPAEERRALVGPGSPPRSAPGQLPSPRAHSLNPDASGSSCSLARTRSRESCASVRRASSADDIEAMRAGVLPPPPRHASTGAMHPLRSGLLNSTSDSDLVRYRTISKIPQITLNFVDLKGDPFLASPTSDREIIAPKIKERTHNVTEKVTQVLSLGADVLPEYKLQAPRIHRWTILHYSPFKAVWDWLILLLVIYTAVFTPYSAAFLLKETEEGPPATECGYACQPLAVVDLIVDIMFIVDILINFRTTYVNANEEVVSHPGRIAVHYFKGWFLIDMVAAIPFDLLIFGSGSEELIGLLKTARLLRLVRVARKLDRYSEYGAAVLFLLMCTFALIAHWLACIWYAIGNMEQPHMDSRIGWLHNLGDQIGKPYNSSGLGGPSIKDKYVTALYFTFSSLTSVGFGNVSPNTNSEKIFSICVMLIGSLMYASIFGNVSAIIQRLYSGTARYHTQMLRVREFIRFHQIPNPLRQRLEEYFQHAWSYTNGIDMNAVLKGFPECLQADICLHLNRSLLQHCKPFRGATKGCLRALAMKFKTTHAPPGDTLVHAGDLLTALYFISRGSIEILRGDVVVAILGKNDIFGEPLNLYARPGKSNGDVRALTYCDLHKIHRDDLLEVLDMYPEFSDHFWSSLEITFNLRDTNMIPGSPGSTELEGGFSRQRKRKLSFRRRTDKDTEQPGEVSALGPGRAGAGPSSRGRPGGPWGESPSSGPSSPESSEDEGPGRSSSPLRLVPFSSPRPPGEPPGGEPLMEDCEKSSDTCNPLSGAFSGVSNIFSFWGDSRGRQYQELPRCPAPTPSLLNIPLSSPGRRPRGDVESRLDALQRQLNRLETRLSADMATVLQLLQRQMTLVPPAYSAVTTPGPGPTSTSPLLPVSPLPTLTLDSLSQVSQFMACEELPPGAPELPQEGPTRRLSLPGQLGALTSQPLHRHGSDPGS

Row | SMILES | hERG current change (%, negative = inhibition) at 1uM [%]
1 | CCOC(=O)CC(=O)NC1(Cc2ccc(O)cc2)CCCCC1 | 6.11
2 | CC(=O)Nc1ccc(N/C=C/C(=O)C(C)(C)C)cc1 | 5.65
3 | CCn1c(C(=O)O)c(CC(=O)Nc2ccccc2F)c2ccccc21 | 14.9
4 | Cc1ccc2nc3c(cc2c1)c(NC(=O)c1ccccn1)nn3CC(C)C | -4.52
5 | Cc1ccccc1NC(=O)/C=C/c1cccs1 | -1.78
6 | CCCn1c(=O)c2ccccc2n2c(SCC(=O)c3ccc(CC)cc3)nnc12 | 4.22
7 | CC1CCC(NC(=O)C2CCN(c3cnccn3)CC2)CC1 (centres unmarked) | 15.7
8 | Cc1cc(C)cc(-n2c(C)cc(C(=S)N3CCOCC3)c2C)c1 | 3.64
9 | O=C(NCc1ccccn1)Nc1ccc(Br)cc1 | 3.98
10 | O=C(COc1ccc(F)cc1Br)N1CCN(S(=O)(=O)/C=C/c2ccccc2)CC1 | 3.2
11 | S=C(NCc1ccccc1)Nc1nccs1 | 0.125
12 | COc1ccccc1OCC(=O)Nc1ccc(S(=O)(=O)NC(C)=O)cc1 | 15.2
13 | O=S(=O)(Nc1c(O)ccc2ccccc12)c1ccc(F)cc1 | 10.5
14 | CCc1noc(C)c1C(=O)N1CCN(S(=O)(=O)c2cccc(C(F)(F)F)c2)CC1 | 2.08
15 | CCOc1ccccc1Nc1nc(-c2sc(C)nc2C)cs1 | 22.5
16 | CCOc1ccc(C(=O)Nc2c3c(nn2C(C)(C)C)CSC3)cc1OCC | -0.169
17 | ONC(=Nc1ccc(Cl)cc1)c1ccccc1 | -0.216
18 | Cc1cccc(OCc2nnc(SCC(=O)Nc3cccc(C(=O)N4CCOCC4)c3)n2C)c1 | 6.83
19 | COC(=O)c1ccccc1NC(=O)Cn1nnc(-c2ccc3c(c2)OCO3)n1 | 7.32
20 | O=C(Oc1ccc(C(=S)N2CCOCC2)cc1)c1ccc([N+](=O)[O-])cc1[N+](=O)[O-] | 10.9
21 | CCc1c(C(=O)N/N=C/c2sccc2C)nnn1-c1nonc1N | 16.4
22 | Cc1nnc(SCC(=O)NC23CC4CC(CC(C4)C2)C3)n(N)c1=O | 8.13
23 | Cc1nc2ccc(NC(=O)c3cc(S(=O)(=O)N4CCOCC4)ccc3C)cc2s1 | 17.3

Row | SMILES | hERG current change (%, negative = inhibition) at 1uM [%]
24 | COc1ccc2cc(C(=O)CS(=O)(=O)c3ccccc3)c(=O)oc2c1 | 12
25 | O=S(=O)(c1cccs1)N1CCCc2ccccc21 | 1.4
26 | O=C(O)/C(=C\c1ccc(C(F)(F)F)cc1)c1ccc(S(=O)(=O)N2CCCC2)s1 | 11.5
27 | O=C(OCC1OC(n2ncc(=O)[nH]c2=O)C(OC(=O)c2ccccc2)C1OC(=O)c1ccccc1)c1ccccc1 (centres unmarked) | 15.7
28 | O=C(c1cccc(C(F)(F)F)c1)N(c1ccccn1)C1CCCCC1 | 10.2
29 | COc1ccc(-c2c3c(=O)n(C)c(=O)n(C)c3cn2Cc2ccccn2)cc1 | 10.5
30 | CCc1cc2cc3c(cc2nc1SCC(=O)N1CCN(C(=O)c2ccco2)CC1)OCO3 | -5.9
31 | O=C(NCc1cccnc1)c1cc2nc(-c3ccc4c(c3)OCO4)cc(C(F)(F)F)n2n1 | 6.56
32 | COC(=O)C1CCN(c2c([N+](=O)[O-])cc(C(F)(F)F)cc2[N+](=O)[O-])CC1 | 9.95
33 | CCN(CC)C(=O)C1CCCN(C(=O)c2cc(COc3cccc(OC)c3)on2)C1 (centres unmarked) | -8.57
34 | CN1CCN(C(=O)c2cc(=O)c3cc(Cl)cc(Cl)c3o2)CC1 | -5.7
35 | COc1cc2nc(/C=C/c3ccc(N(C)C)cc3)sc2cc1SC | 7.27
36 | COC(=O)COc1ccc(S(=O)(=O)NCc2cccnc2)cc1 | 8.98
37 | Cc1ccc2nc(Nc3nc(CSc4nnc(C)s4)cc(=O)[nH]3)nc(C)c2c1 | 3.97
38 | O=[N+]([O-])c1ccc(N/N=C\c2ccccc2OCc2ccccc2)cc1 | 16.9
39 | CCOc1cc(/C=C2/C(=N)N3OC(C)=CC3=NC2=O)ccc1OC(=O)c1ccco1 | 2.91
40 | O=C(Nc1ccccc1C(=O)Nc1nncs1)c1ccccc1 | 19.9
41 | Nc1ncnc2nc(SCCN3CCCCC3)[nH]c12 | 9.84
42 | O=C(Nc1sccc1C(=O)N1CCOCC1)c1cccnc1 | 4.54
43 | CS(=O)(=O)c1ccccc1-c1nnc(NC(=O)CCS(=O)(=O)c2ccc(Cl)cc2)o1 | -12.2
44 | Cn1cnnc1SCc1ccc(-c2ccc(Br)cc2)o1 | 9.14
45 | CCOc1ccc(S(=O)(=O)NCCC2=CCCCC2)c2ccccc12 | 7.21
46 | O=C(Cn1nnc(-c2ccccc2)n1)NNC(=O)c1ccccc1 | -1.02

Row | SMILES | hERG current change (%, negative = inhibition) at 1uM [%]
47 | Cc1ccc(NC(=O)C2CCCN(S(=O)(=O)c3ccc4c(c3)oc(=O)n4C)C2)nc1 (centres unmarked) | 5.25
48 | COc1ccc(CCNC(=O)CSc2nn3c(=O)c(C)nnc3s2)cc1OC | 10.1
49 | O=S(=O)(c1cccc2nsnc12)N1CCc2ccccc2C1 | 0.545
50 | Cc1cc(Br)c(S(=O)(=O)NCCN2CCOCC2)cc1C | 12
51 | CCOC(=O)c1sc2nc(N3CCCC3)c3c(c2c1N)CC(C)(C)OC3 | 6.24
52 | CCc1ccc(NC(=O)Cn2ncn3c(cc4ccccc43)c2=O)cc1 | 4.19
53 | Cc1c(OC(C)C(=O)NCCCn2ccnc2)ccc2c3c(c(=O)oc12)CCC3 (centres unmarked) | 4.05
54 | CCOc1ccccc1Nc1nnc(SCC(=O)N2CCCC2)s1 | 4.61
55 | CC(C)Cn1c(SCC(=O)N(C)C2CCS(=O)(=O)C2)nc2cc(Cl)ccc2c1=O (centres unmarked) | 4.62
56 | Cc1cc(C)c(S(=O)(=O)NC2CC(C)(C)NC(C)(C)C2)cc1Br | 3.29
57 | CCC(=O)Nc1ccc(C=C(C(C)=O)C(C)=O)cc1 | 19.7
58 | CCCc1cc(=O)[nH]c(SCC(=O)N2CCOCC2)n1 | 11.9
59 | CC(C)COc1ccc(C(=O)NNC(=O)c2ccc(=O)[nH]c2)cc1 | 5.99
60 | Cn1nnc(NC(=S)NC(=O)c2cc3ccccc3o2)n1 | 14.8
61 | COC1CC(C)NC(=S)N1 (centres unmarked) | 14.8
62 | Cc1ccccc1C(=O)N1CCN(c2ccc(NC(=O)c3cccc(OC(C)C)c3)cc2)CC1 | 10.4
63 | CCCc1cc(=O)n2[nH]c(-c3ccc(OC)cc3)nc2n1 | -3.28
64 | O=C(C(Cc1ccccc1)N1C(=O)C2C3C=CC(C3)C2C1=O)N1CCCCC1 (centres unmarked) | 13.1
65 | Cc1ccc(NC(=O)CSCC(=O)Nc2cc(C(F)(F)F)ccc2N2CCOCC2)cc1 | 5.26
66 | CCOc1ccc(N(CC(=O)NCC2CCCO2)S(=O)(=O)c2ccc(Cl)cc2)cc1 (centres unmarked) | -16.1
67 | CC(C)CCNC(=O)[C@H](Cc1ccccc1)N1Cc2ccccc2C1=O | 12.3
68 | CCOC(=O)N1CCC(NC(=O)CS(=O)(=O)Cc2nc(-c3ccc(OC)cc3)oc2C)CC1 | 18.6
69 | COc1ccccc1-c1nnc(SCC(=O)Nc2ccc(S(N)(=O)=O)cc2)n1C | -2.34

Row | SMILES | hERG current change (%, negative = inhibition) at 1uM [%]
70 | N#Cc1ccc(NC(=O)COC(=O)C2Cc3ccccc3CN2C(=O)c2ccccc2)cc1 (centres unmarked) | 3.93
71 | COc1cc(C2C(C(C)=O)=C(O)C(=O)N2CCc2c[nH]c3ccccc23)ccc1O (centres unmarked) | 1.02
72 | O=[N+]([O-])c1ccccc1-c1cc(-c2ccccc2O)n[nH]1 | 17.7
73 | COc1ccccc1NCCC(=O)OCC(=O)NC1CCCCC1 | 5.87
74 | O=C(CSc1nnc(CCCO)n1-c1ccccc1)NCCc1ccccc1 | 5.42
75 | O=C(c1ccco1)n1nc(NCc2ccccc2)nc1NCc1ccccc1 | 5.6
76 | CC(=O)Nc1ccc(O)cc1 | 13.6
77 | O=C(O)CCSc1nnc(-c2ccc3c(c2)OCO3)o1 | 8.61
78 | Cc1cc(C)nc(N/N=C/c2cccc3ccccc23)n1 | 16.8
79 | CCCCC(=O)Nc1nnc(S(=O)(=O)N2CCCCCC2)s1 | 11.6
80 | Cc1ccccc1Cn1cc(NC(=O)COc2ccccc2)cn1 | 13
81 | CCOc1ccc(S(=O)(=O)N2CCN(Cc3ccco3)CC2)cc1 | 6.45
82 | O=c1oc2ccccc2c(NCCc2ccccc2)c1[N+](=O)[O-] | 2.5
83 | Cc1cc(Cc2ccc(N)c(C)c2)ccc1N | 12
84 | Cc1cc(=O)nc2c3ccccc3n(C(C)C(=O)Nc3cc(F)ccc3F)n12 (centres unmarked) | 2.3
85 | O=C(O)C(=O)/C(=C\c1cccc2ccccc12)c1ccc2ccccc2n1 | 16.7
86 | CN(C)C(=O)c1ccc(NC(=O)c2ccccc2SCC(=O)N2CCCC2)cc1 | 9.77
87 | O=C1CC(Cc2ccc(Cl)cc2)C(=O)N1c1ccncc1 (centres unmarked) | 1.95
88 | CC(=O)NC(Cc1c[nH]c2ccccc12)C(=O)NCc1ccc2c(c1)OCO2 (centres unmarked) | 1.36
89 | Cc1ccc(C2CC(=O)c3cnc(N4CCN(c5ccccc5)CC4)nc3C2)cc1 (centres unmarked) | 5.58
